The results in this text go back to the supplement of paper PMC10126150.

Values marked as one replicate rest on one cluster of the flow cell; about a third of the high ones do not repeat.
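Also: ATP exposure 15 min at 22 °C before imaging.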

In this data set the test system is ATP. In words: switch fluorescence ratio, 500 uM ATP over buffer (Cy3 cluster intensity, sum of 5 cycles each) (fold (ratio)); higher = stronger signal-on switching upon ATP binding; sequences stand for … in TCGTCGGCAGCGTCAGATGTGTATAAGAGACAGTTTTTTTTTTTTTTTTTTTTTTTTT…TC. The settings on record: aptamer strand: ATP DNA aptamer (quencher-CACCTGGGGGAGTATTGCGGAGGAAGG + anchor), 100 nM annealed; ATP concentration: 500 uM; one replicate. Put shortly: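 Clusters with intensities outside 100-1000 RFU were excluded. The remaining Cy3-labelled switching-strand clusters on a modified Illumina MiSeq flow-cell had been annealed to 100 nM quencher-labelled ATP aptamer and imaged in selection buffer, then after 15 min with 500 uM ATP at 22 °C, for five cycles separated by NaOH stripping and re-annealing. The fluorescence ratio, averaged per switch-domain sequence, is each cluster's summed target-cycle Cy3 intensity over its summed buffer-cycle Cy3 intensity.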
Regarding AACGTACACG, the switch fluorescence ratio came to 1.22.
The value for GGAGGATATA was 1.05; that for AATCAAGC was 1.04.
For ATAGAAGGAG, the switch fluorescence ratio is 0.991.
As to ATGTCAGCTA, the switch fluorescence ratio came out at 1.06.
CGGTATCAGT: the switch fluorescence ratio turned out to be 0.971.
The value for AAGCACGCAC was 1.89; that for TGATAGTCTC was 1.03; that for TAGTGGGACC was 0.989.
The value for TGCCCTCTTC was 1.02; that for CGCACAAACA was 1.2.
ATAGCATGG: the switch fluorescence ratio amounted to 1.03.
As for TGCCACTACC, the figure is 1.32.
Take GAGCTTCATC: the switch fluorescence ratio was found to be 1.04.
As for AGAAGATAGA, the figure is 1.03; as for AGAGTCACTT, 0.992; as for AGGCGCCTTG, 1.
Consider TCACAATCAA, for which the switch fluorescence ratio worked out at 1.
As for AGTTGGTGCA, the figure is 0.964; as for GCTAGAATGA, 0.982; as for AAACGCAGGT, 1.07.
The value for TACTTTAAGG was 0.999.
As for GACGCCAACC, the figure is 2.05; as for ATTCATGGTC, 1.04; as for CCTTCACTTC, 1.19.
As to TTAGTTCCCG, the switch fluorescence ratio is 1.02.
As for CAAAGGGATT, the switch fluorescence ratio was 0.966.
On to CGTCTTTTTA, for which the switch fluorescence ratio came out at 1.02.
For AGTAATTCAG, the switch fluorescence ratio was found to be 1.
The value for AAACGGCGG was 0.988.
For CAGGTGGGCT, the switch fluorescence ratio was determined as 1.34.
As to CTGTGATCA, the switch fluorescence ratio is 1.09.
As for GTTGTCATTC, the switch fluorescence ratio worked out at 0.974.
As for GTGTGGTTAA, the figure is 1; as for TTAAGGTTTC, 0.984.
As for CTAGGAGTGC, the figure is 0.792; as for TTGATTCCAG, 1.05; as for ACCGGCCAG, 1.05.
As for GCTACACTCA, the figure is 1.08; as for TCTGGAGAA, 1.03.
For the sequence CGATAAAAAG, the switch fluorescence ratio is 0.989.
As for ACCGCTTGTG, the switch fluorescence ratio came to 1.06.
GTTCTATAGA: the switch fluorescence ratio stood at 1.04.
The value for CAACGGCAG was 1.03; that for GATAGGTTTT was 0.999.
As for AGAACGTTTC, the switch fluorescence ratio is 0.985.
As to CTGAAAGAGG, the switch fluorescence ratio came to 0.976.
As to GATAGTTACT, the switch fluorescence ratio is 1.01.
The value for CGTAATTAC was 2.6; that for TTGGGAATAT was 1.02; that for TGGTGTCTCC was 0.988.
As for AGTTGTGTGA, the figure is 0.993; as for TTCGCGGGAG, 0.978.
As to TGCAAGATAC, the switch fluorescence ratio was 4.11.
The value for ATGAACGTTG was 1.02; that for ATAGACCAGG was 1.11; that for GCCCCCTTAG was 1.05.
The value for CCTTAACTGT was 1.01.
As for CTCCAAGTTA, the figure is 1.14.
Regarding GAGTGGTGGG, the switch fluorescence ratio was found to be 0.994.
The value for TTTGGCAGTG was 0.963.
For TCACAACGGG, the switch fluorescence ratio is 1.06.
On to GTCTTAATAC, for which the switch fluorescence ratio came to 1.42.
For the sequence CGTTAAGACT, the switch fluorescence ratio was found to be 0.981.
As for ATACATGGGA, the figure is 1; as for GAGGTACGTC, 0.976.
For AGTTGCTGG, the switch fluorescence ratio stood at 1.03.
